Assay results: patent US7592316B2, “Peptides as NS3-serine protease inhibitors of hepatitis C virus” (Schering Corporation, priority 2000, dated 2009)
*1 amine or outer side, *2 acyl side, *3 side chain or, on linkers, in order; H or OH if unused. Where a SMILES comes first, the peptide text is derived from it. [ ]: non-standard residue; d: D form. The star is where a group is joined. ξ: configuration not given here. Pro(3R,4S-CMe2) = CC1(C)[C@@H]2[C@@H](C(=O)O)NC[C@@H]21; ξ(3-Amino-2-oxopentanoyl) = CCC(N[*:1])C(=O)C(=O)[*:2]; Phenylacetyl(3-CH2COOH) = O=C(O)Cc1cccc(CC(=O)*)c1; Pro(4,4-S(CH2)3S) = O=C(O)[C@@H]1CC2(CN1)SCCCS2; ξLeu(ψCOCO) = CC(C)CC(N[*:1])C(=O)C(=O)[*:2]; ξPro(4,4-S(CH2)3S) = O=C(O)C1CC2(CN1)SCCCS2; Benzoyl(2-COOH) = O=C(O)c1ccccc1C(=O)*; X58 = O=C(O)c1c(F)c(F)c(F)c(C(=O)*)c1F; Cyclohexanecarbonyl = O=C(C1CCCCC1)*; Isobutyloxycarbonyl = CC(C)COC(=O)*; Cyclopentylacetyl = O=C(CC1CCCC1)*; X4 = CCCCC(N[*:1])C(=O)C(=O)[*:2]; Hyp = O=C(O)[C@@H]1C[C@@H](O)CN1; X2 = CCCC(N[*:1])C(=O)C(=O)[*:2]; dPhg = N[C@@H](C(=O)O)c1ccccc1; CH2CO2tBu = CC(C)(C)OC(=O)C*; Chg = N[CH](C(=O)O)C1CCCCC1; Phg = N[CH](C(=O)O)c1ccccc1; Tle = CC(C)(C)[C@H](N)C(=O)O; ξChg = NC(C(=O)O)C1CCCCC1; ξPhg = NC(C(=O)O)c1ccccc1; Pyrrolidide = C1CCN(*)C1; X29 = Cc1cccc(C)c1C(=O)*; Boc = CC(C)(C)OC(=O)*; ξNle = CCCCC(N)C(=O)O; Bn = c1ccc(C*)cc1; ξS = NC(CO)C(=O)O; tBu = CC(C)(C)*

What follows are compounds tested against HCV NS3/NS4A protease (strain 1a) (Hepatitis C virus genotype 1a, UniProt P27958) (assay: biochemical). Conditions: Compounds prepared by Solid Phase Synthesis, Table 3; read-out: Ki* CLASS.
Description: Assay for HCV Protease Inhibitory Activity:
Spectrophotometric Assay Spectrophotometric assay for the HCV serine protease was performed on the inventive compounds by following the procedure described by R. Zhang et al, Analytical Biochemistry, 270 (1999) 268-275, the disclosure of which is incorporated herein by reference. The assay based on the proteolysis of chromogenic ester substrates is suitable for the continuous monitoring of HCV NS3 protease activity. The substrates were derived from the P side of the NS5A-NS5B junction sequence (Ac-DTEDWX(Nva), where X=A or chromophoric alcohols (3- or 4-nitrophenol, 7-hydroxy-4-methyl-coumarin, or 4-phenylazophenol). Presented below are the synthesis, characterization and application of these novel spectrophotometric ester substrates to high throughput screening and detailed kinetic evaluation of HCV NS3 protease inhibitors.
Protein concentrations were determined by the Biorad dye method using recombinant HCV protease standards previously quantified by amino acid analysis. Prior to assay initiation, the enzyme storage buffer (50 mM sodium phosphate pH 8.0, 300 mM NaCl, 10% glycerol, 0.05% lauryl maltoside and 10 mM DTT) was exchanged for the assay buffer (25 mM MOPS pH 6.5, 300 mM NaCl, 10% glycerol, 0.05% lauryl maltoside, 5 μM EDTA and 5 μM DTT) utilizing a Biorad Bio-Spin P-6 prepacked column.
Protease Assay: HCV protease assays were performed at 30° C. using a 200 μl reaction mix in a 96-well microtiter plate. Assay buffer conditions (25 mM MOPS pH 6.5, 300 mM NaCl, 10% glycerol, 0.05% lauryl maltoside, 5 μM EDTA and 5 μM DTT) were optimized for the NS3/NS4A heterodimer (D. L. SalI et al, ibid.)). […] Fifty μls of prewarmed protease (12 nM, 30° C.) in assay buffer, was then used to initiate the reaction (final volume 200 μl). The plates were monitored over the length of the assay (60 minutes) for change in absorbance at the appropriate wavelength (340 nm for 3-Np and HMC, 370 nm for PAP, and 400 nm for 4-Np) using a Spectromax Plus microtiter plate reader equipped with a monochrometer (acceptable results can be obtained with plate readers that utilize cutoff filters). Proteolytic cleavage of the ester linkage between the Nva and the chromophore was monitored at the appropriate wavelength against a no enzyme blank as a control for non-enzymatic hydrolysis. The evaluation of substrate kinetic parameters was performed over a 30-fold substrate concentration range (˜6-200 μM). Initial velocities were determined using linear regression and kinetic constants were obtained by fitting the data to the Michaelis-Menten equation using non-linear regression analysis (Mac Curve Fit 1.1, K. Raner). Turnover numbers (kcat) were calculated assuming the enzyme was fully active.
The resulting data were fitted using linear regression and the resulting slope, 1/(Ki*(1+[S] o/Km), was used to calculate the Ki* value.

| Structure (SMILES) | Ki [nM] |
| --- | --- |
| CCCCC(NC(=O)[C@@H]1C[C@@H](OCc2ccccc2)CN1C(=O)C(NC(=O)C1CCCCC1)C1CCCCC1)C(=O)C(=O)NCC(=O)NC(C(N)=O)c1ccccc1 (stereo partly shown) (Cyclohexanecarbonyl-[ξChg][Hyp](Bn)[X4]G[ξPhg]-NH2) | 101 to 1000 |
| CCCCC(NC(=O)CNC(=O)C(=O)C(CCC)NC(=O)[C@@H]1C[C@@H](OCC(=O)OC(C)(C)C)CN1C(=O)C(NC(=O)CC1CCCC1)C1CCCCC1)C(N)=O (stereo partly shown) (Cyclopentylacetyl-[ξChg][Hyp](CH2CO2tBu)[X2]G[ξNle]-NH2) | > 1000 |
| CC(C)CC(NC(=O)[C@@H]1C[C@@H](OC(C)(C)C)CN1C(=O)[C@@H](NC(=O)c1c(F)c(F)c(F)c(C(=O)O)c1F)C1CCCCC1)C(=O)C(=O)NCC(=O)N[C@H](C(N)=O)c1ccccc1 (stereo partly shown) (X58-[Chg][Hyp](tBu)[ξLeu(ψCOCO)]G[Phg]-NH2) | > 1000 |
| CCCC(NC(=O)[C@@H]1C[C@@H](OCc2ccccc2)CN1C(=O)C(NC(=O)c1ccccc1C(=O)O)C1CCCCC1)C(=O)C(=O)NCC(=O)N[C@@H](C(N)=O)c1ccccc1 (stereo partly shown) ({Benzoyl(2-COOH)}-[ξChg][Hyp](Bn)[X2]G[dPhg]-NH2) | 101 to 1000 |
| CCCC(NC(=O)[C@@H]1C[C@@H](OCc2ccccc2)CN1C(=O)C(NC(=O)OCC(C)C)C1CCCCC1)C(=O)C(=O)NCC(=O)NC(COC(C)(C)C)C(N)=O (stereo partly shown) (Isobutyloxycarbonyl-[ξChg][Hyp](Bn)[X2]G[ξS](tBu)-NH2) | 101 to 1000 |
| CCC(NC(=O)[C@@H]1C[C@@H](OC(C)(C)C)CN1C(=O)[C@@H](NC(=O)Cc1cccc(CC(=O)O)c1)C1CCCCC1)C(=O)C(=O)NCC(=O)N[C@H](C(N)=O)c1ccccc1 (stereo partly shown) ({Phenylacetyl(3-CH2COOH)}-[Chg][Hyp](tBu)[ξ(3-Amino-2-oxopentanoyl)]G[Phg]-NH2) | 101 to 1000 |
| CCCCC(NC(=O)[C@@H]1C[C@@H](OCc2ccccc2)CN1C(=O)C(NC(=O)c1c(C)cccc1C)C1CCCCC1)C(=O)C(=O)NCC(=O)NC(C(N)=O)c1ccccc1 (stereo partly shown) (X29-[ξChg][Hyp](Bn)[X4]G[ξPhg]-NH2) | 101 to 1000 |

Same assay, conditions: HCV protease continuous assay results, Table 1; read-out: Ki* Range

| Structure (SMILES) | Ki [nM] |
| --- | --- |
| CCCC(NC(=O)[C@@H]1[C@@H]2[C@H](CN1C(=O)[C@@H](NC(=O)OC(C)(C)C)C(C)(C)C)C2(C)C)C(=O)C(=O)NC (stereo partly shown) [Example 321] | > 1000 |
| CCCC(NC(=O)[C@@H]1[C@@H]2[C@H](CN1C(=O)[C@@H](NC(=O)OC(C)(C)C)C(C)(C)C)C2(C)C)C(=O)C(=O)N[C@@H](C)C(=O)NC(C(=O)N(C)C)c1ccccc1 (stereo partly drawn) [Example 357] (Boc-[Tle][Pro(3R,4S-CMe2)][X2]A[ξPhg]-NMe2) | 1 to 100 |
| C=CCOC(=O)CNC(=O)C(=O)C(CCC)NC(=O)[C@@H]1C[C@@H](OC(C)(C)C)CN1C(=O)OCC1c2ccccc2-c2ccccc21 (stereo partly shown) [Example 10] | > 1000 |
| CCCC(NC(=O)[C@@H]1CC2(CN1C(=O)[C@@H](NC(=O)OCC(C)C)C1CCCCC1)SCCCS2)C(=O)C(=O)NCC(=O)NC(C(N)=O)c1ccccc1 (stereo partly shown) [Example 109] (Isobutyloxycarbonyl-[Chg][Pro(4,4-S(CH2)3S)][X2]G[ξPhg]-NH2) | 1 to 100 |
| CCCC(NC(=O)C1CC2(CN1C(=O)C(NC(=O)OCC(C)C)C1CCCCC1)SCCCS2)C(=O)C(=O)NCC(=O)NC(C(=O)N1CCCC1)c1ccccc1 (stereo not shown) [Example 153] (Isobutyloxycarbonyl-[Chg][ξPro(4,4-S(CH2)3S)][X2]G[Phg]-Pyrrolidide; configuration not given here) | 1 to 100 |

Same assay, conditions: Table 4; HCV NS3/NS4A protease, spectrophotometric assay, 30° C., pH 6.5; read-out: Ki* Range

| Ki [nM] | Structure (SMILES) |
| --- | --- |
| 1 to 100 | CCCC(NC(=O)[C@@H]1C[C@@H](NC(=O)OCC(C)C)CN1C(=O)[C@@H](NC(=O)c1c(F)ccc(F)c1C(=O)O)C1CCCCC1)C(=O)C(=O)NCC(=O)N[C@H](C(N)=O)c1ccccc1 (stereo partly shown) |

Same assay, conditions: Table 5; HCV NS3/NS4A protease, 30° C., pH 6.5; read-out: Ki* Range

| Ki [nM] | Structure (SMILES) |
| --- | --- |
| 1 to 100 | C=CCCC(NC(=O)[C@@H]1[C@@H]2[C@H](CN1C(=O)[C@@H](NC(=O)NC(C)(C)C)C1CCCCC1)C2(C)C)C(=O)C(=O)NCCC(=O)OC(C)(C)C (stereo partly shown) |
| 1 to 100 | C=CCCNC(=O)C(=O)C(CCC=C)NC(=O)[C@@H]1[C@@H]2[C@H](CN1C(=O)[C@@H](NC(=O)NC(C)(C)C)C(C)(C)C)C2(C)C (stereo partly shown) |
| 1 to 100 | CCCC(NC(=O)[C@@H]1[C@H]2[C@@H](CN1C(=O)C(NC(=O)OC(C)(C)C)C1CCCCC1)C2(C)C)C(=O)C(=O)NCC(=O)NC1CC1 (stereo partly shown) |

Same assay, conditions: Table 5; HCV NS3/NS4A protease, spectrophotometric assay, 30° C., pH 6.5; read-out: Ki* Range

| Ki [nM] | Structure (SMILES) |
| --- | --- |
| 101 to 1000 | CCCC(NC(=O)[C@@H]1[C@@H]2[C@H](CN1C(=O)[C@@H](NC(=O)OC(C)C)C1CCCC1)C2(C)C)C(=O)C(N)=O (stereo partly shown) |
| > 1000 | CC(C)[C@H](NC(=O)OC(C)(C)C)C(=O)N1C[C@H]2[C@@H](C1C(=O)NC1(C(=O)C(N)=O)CC1)C2(C)C (stereo partly shown) |
| > 1000 | C=CCC(NC(=O)[C@@H]1[C@@H]2[C@H](CN1C(=O)[C@@H](NC(=O)OC(C)(C)C)C(C)(C)C)C2(C)C)C(=O)C(=O)NCC(=O)N1CCc2ccccc2C1 (stereo partly shown) [drawing 1752] |
